Source: PubChem BioAssay (NCI)
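Dose response: 5 concentrations. Exposure: 48 h. Format: 96-well plates. Endpoint: linear interpolation; highest concentration if not reached. GI50 is the concentration that inhibits growth by half. TGI is the concentration that stops growth completely.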 Numbered stars: 1 amine (or outer) side, 2 acyl side, 3 side chain; on linkers, the order of the positions; unused ones are H or OH. Bridge positions count the residues as written; N and C are the ends. Square brackets hold non-standard residues; d marks the D form. Peptide text beside a SMILES is read from it. I, II: the chains in the order shown. Actinocin(9to1) = Cc1c2oc3c(C)ccc(C(=O)[*:1])c3nc-2c(C(=O)[*:2])c(N)c1=O; NMeV = CN[CH](C(=O)O)C(C)C; Sar = CNCC(=O)O

These compounds were tested on NCI-H322M lung (assay: NCI anticancer screen, dose series, 48 h).
For `O=c1c(Nc2ccccc2)cn(CCOc2ccc(Cl)cc2)c(=O)n1CCOc1ccc(Cl)cc1`, the TGI was > 100 µM.
With `c1cc(CN2CCCNCCNCCCNCC2)ccc1CN1CCCNCCNCCCNCC1` the GI50 was > 100 µM and the TGI was > 100 µM.
`N#C/C(=C/n1c(=S)[nH]c2ccccc21)C(N)=O` was tested, and the TGI was > 100 µM.
`CCN(CC)CCC(=O)OC1C(C)=CC(C)C(=O)CC(C(C)CC2CCC(O)C(OC)C2)OC(=O)C2CCCCN2C(=O)C(=O)[C@@]2(O)OC(CCC2C)CC(OC)\C(C)=C/C=C/C=C/C(C)CC(C)C(=O)C1OC` (stereo not given in full) showed a TGI of 23.2 µM.
For `O=C(O)CN1CCCC(Cc2c[nH]c3ccccc23)C1` (stereo not given), the TGI was > 100 µM.
In the case of `COc1ccc(-c2nsc3c2NC(=O)CC3c2ccc3c(c2)OCCO3)cc1` (stereo not given), the GI50 is reported as 43.6 µM and the TGI is reported as > 100 µM.
In the case of `CC/C=C\C[C@H](O)C/C=C1/C(=O)C=C[C@@H]1C/C=C\CCCC(=O)OC(C)C`, the GI50 is reported as 1.64 µM and the TGI is reported as 4.21 µM.
With `Cc1c(OCCCOc2ccc3c(=O)cc(-c4ccccc4)oc3c2C)ccc2c(=O)cc(-c3ccccc3)oc12` the TGI was > 100 µM.
With `CC(=O)NNC(=S)/N=C\c1c(O)c2ccccc2oc1=O` the TGI was > 100 µM.
`COc1cc(OC)c(/C=C/C(=O)c2ccc(Nc3ncnc4ccccc34)cc2)c(OC)c1` showed a GI50 of 2.38 µM and a TGI of 7.43 µM.
`O=P(O)(O)OCC1OC(n2cnc3c(NCc4ccco4)ncnc32)C(O)C1O` (stereo not given) was tested, and the GI50 was 0.431 µM and the TGI was > 100 µM.
`COc1cc(NS(C)(=O)=O)ccc1NCc1cnc2ccc3[nH]cccc3c12` gave a TGI of 66.7 µM.
In the case of `O=C1C(C(c2ccc([N+](=O)[O-])cc2)N2CCOCC2)=C(O)C(c2ccccc2)N1c1ccccc1` (stereo not given), the TGI is reported as > 10 µM.
With `N/C(=N\S(=O)(=O)c1ccc(-c2ccccn2)s1)Nc1ccc(Cl)cc1` the TGI was 39.5 µM.
For `CCN(CCCl)CCCCCNc1c2ccccc2nc2ccc(OC)cc12`, the TGI was 4.11 µM.
`CCC#CC[C@H](O)C/C=C1/C(=O)C=C[C@@H]1C/C=C\CCCC(=O)OC` gave a GI50 of 3.46 µM and a TGI of 10.2 µM.
Work on `CC(=O)OC12CC(C(F)(F)F)(C(F)(F)F)OC1(OC(C)=O)CC(C(F)(F)F)(C(F)(F)F)O2` (stereo not given) yielded a TGI of 11.7 µM.
In the case of `Cc1c2oc3c(C)ccc(C(=O)OC(C)C4NC(=O)C(C(C)C)N(C)C(=O)CN(C)C(=O)C5CCCN5C(=O)C(C(C)C)NC4=O)c3nc-2c(C(=O)OC(C)C2NC(=O)C(C(C)C)N(C)C(=O)CN(C)C(=O)C3CCCN3C(=O)C(C(C)C)NC2=O)c(N)c1=O` (stereo not given) (I: cyclo([Sar][NMeV]TVP) / II: cyclo([Sar][NMeV]TVP); linker I:3-II:3 via Actinocin(9to1); configuration not given here), the GI50 is reported as < 0.01 µM and the TGI is reported as 0.301 µM.
`Cc1ccc2[nH]c3c(c2c1)N=c1ccccc1=NO3` was tested, and the GI50 was 28.9 µM and the TGI was > 100 µM.
In the case of `O=C1/C(=C/c2ccc(F)c(F)c2)CN(C(=O)C(Cl)Cl)C/C1=C\c1ccc(F)c(F)c1`, the GI50 is reported as 0.264 µM and the TGI is reported as 0.981 µM.
In the case of `CCCCC(=C=C(C)CO)C1CCCN1C(=O)OC(C)(C)C` (stereo not given), the TGI is reported as 57.6 µM.
